{"source": "paper PMC4336329", "about": "(PLoS ONE, 2015)", "note": "The campaign covered roughly 310,000 compounds. About 2,200 (0.71%) showed an effect of 50% or more. The effect is printed as a negative number. The list shows a part of the results.", "data": [{"molecular_target": "human ether-à-go-go-related gene (hERG) potassium channel (human, UniProt Q12809)", "sequence (Q12809 whole entry, looked up)": "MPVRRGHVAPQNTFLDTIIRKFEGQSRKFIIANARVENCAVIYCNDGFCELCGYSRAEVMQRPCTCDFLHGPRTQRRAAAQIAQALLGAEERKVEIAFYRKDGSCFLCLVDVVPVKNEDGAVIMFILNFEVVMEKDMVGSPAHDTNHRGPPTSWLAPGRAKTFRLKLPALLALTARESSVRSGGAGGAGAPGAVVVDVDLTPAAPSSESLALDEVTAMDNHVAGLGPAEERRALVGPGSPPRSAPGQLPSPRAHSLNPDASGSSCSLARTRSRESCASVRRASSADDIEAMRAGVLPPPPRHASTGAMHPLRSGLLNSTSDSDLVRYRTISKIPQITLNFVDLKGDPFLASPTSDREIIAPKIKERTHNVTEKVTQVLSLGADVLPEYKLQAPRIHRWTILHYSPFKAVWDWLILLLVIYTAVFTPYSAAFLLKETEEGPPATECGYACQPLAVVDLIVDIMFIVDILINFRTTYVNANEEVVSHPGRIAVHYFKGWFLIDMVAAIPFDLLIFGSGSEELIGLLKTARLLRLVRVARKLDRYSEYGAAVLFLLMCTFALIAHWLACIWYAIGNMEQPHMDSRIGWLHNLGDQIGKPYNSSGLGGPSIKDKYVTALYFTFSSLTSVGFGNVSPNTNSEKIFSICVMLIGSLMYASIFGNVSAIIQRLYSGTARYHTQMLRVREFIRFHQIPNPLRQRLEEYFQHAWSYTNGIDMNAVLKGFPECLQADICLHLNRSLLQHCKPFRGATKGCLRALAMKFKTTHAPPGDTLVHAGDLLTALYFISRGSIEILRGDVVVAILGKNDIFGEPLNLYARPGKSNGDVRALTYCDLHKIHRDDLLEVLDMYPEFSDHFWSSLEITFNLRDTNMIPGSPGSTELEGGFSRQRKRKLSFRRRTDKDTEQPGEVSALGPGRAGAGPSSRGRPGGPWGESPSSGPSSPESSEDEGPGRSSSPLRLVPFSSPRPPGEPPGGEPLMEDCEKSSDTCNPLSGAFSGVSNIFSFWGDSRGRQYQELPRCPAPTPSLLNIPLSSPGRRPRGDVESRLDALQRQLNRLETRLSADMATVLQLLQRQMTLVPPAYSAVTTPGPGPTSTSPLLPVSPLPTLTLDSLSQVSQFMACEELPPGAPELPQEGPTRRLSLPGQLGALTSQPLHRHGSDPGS", "assay": "primary screen, population patch clamp on CHO cells stably expressing hERG", "units": {"hERG current change (%, negative = inhibition) at 1uM": "%"}, "values": [{"compound": "O=C(Nc1ccc2c(c1)OCO2)N1CCN(c2ncccn2)CC1", "hERG current change (%, negative = inhibition) at 1uM": 2.78}, {"compound": "c1ccc(CSc2ncnc3sccc23)cc1", "hERG current change (%, negative = inhibition) at 1uM": 2.78}, {"compound": "CSc1cccc(NC(=S)N(CCN(C)C)C(C)c2ccncc2)c1", "note": "(stereo not shown)", "hERG current change (%, negative = inhibition) at 1uM": -1.28}, {"compound": "COc1cc2ncnc(N[C@H](C)c3ccccc3)c2cc1OC", "hERG current change (%, negative = inhibition) at 1uM": 2.27}, {"compound": "CCc1nc2sc(C#N)c(N)c2c2c1CCCC2", "hERG current change (%, negative = inhibition) at 1uM": 13.7}, {"compound": "COc1ccccc1/C=C/C=N/NC(=O)c1cnccn1", "hERG current change (%, negative = inhibition) at 1uM": 32.2}, {"compound": "COCCN(C(=O)c1snc(C(N)=O)c1N)C(C(=O)NC1CCCCC1)c1ccc(N(C)C)cc1", "note": "(stereo not shown)", "hERG current change (%, negative = inhibition) at 1uM": 7.59}, {"compound": "Oc1cccc(/C=N/NP(=S)(c2ccccc2)c2ccccc2)c1", "hERG current change (%, negative = inhibition) at 1uM": -5.2}, {"compound": "Cc1c(C(=O)c2cccc(F)c2)c2ccccn2c1CCC#N", "hERG current change (%, negative = inhibition) at 1uM": 4.8}, {"compound": "CCCCCCc1ccc(N2C[C@H](CCCCC)[C@@H](CC(=O)NCc3ccc(OC)cc3)C2=O)cc1", "hERG current change (%, negative = inhibition) at 1uM": -14.4}, {"compound": "O=C(COC(=O)[C@H](Cc1ccccc1)NC(=O)c1cccs1)Nc1c(Cl)cccc1Cl", "hERG current change (%, negative = inhibition) at 1uM": -8.27}, {"compound": "COc1ccc([C@H]2CC(=O)C=C(c3ccc(C(=O)O)cc3)C2)cc1OC", "hERG current change (%, negative = inhibition) at 1uM": 8.57}, {"compound": "CCCn1c(SCC(=O)c2c(N)n(C3CC3)c(=O)[nH]c2=O)nnc1-c1ccncc1", "hERG current change (%, negative = inhibition) at 1uM": 9.61}, {"compound": "Cc1ccc(S(=O)(=O)Nc2ccccc2)cc1C(=O)N1CCCC1", "hERG current change (%, negative = inhibition) at 1uM": 7.76}, {"compound": "Cc1ccccc1C(=O)Nc1cccc(-c2nnc(SCC(=O)O)n2C)c1", "hERG current change (%, negative = inhibition) at 1uM": 17.4}, {"compound": "COCC(C)n1c(SCc2nc(N)nc(Nc3ccccc3C)n2)nc2ccccc2c1=O", "note": "(stereo not shown)", "hERG current change (%, negative = inhibition) at 1uM": 13.5}, {"compound": "Cc1ccc(C(=O)Nc2ccc(S(=O)(=O)N3CCN(C)CC3)cc2)cc1", "hERG current change (%, negative = inhibition) at 1uM": -2.89}, {"compound": "N=c1c(C(=O)NCCc2ccccc2)cc2c(=O)n3ccccc3nc2n1CC1CCCO1", "note": "(stereo not shown)", "hERG current change (%, negative = inhibition) at 1uM": -93.8}, {"compound": "COc1ccccc1NC(=O)Cn1c(=O)n(C)c(=O)c2sc3c(c21)COC(C)(C)C3", "hERG current change (%, negative = inhibition) at 1uM": 4.47}, {"compound": "O=C(COc1ccccc1)c1cn(Cc2ccccc2)c2ccccc12", "hERG current change (%, negative = inhibition) at 1uM": 8.91}, {"compound": "Cc1ccc(C(=O)c2oc3ccccc3c2NC(=O)c2cc(-c3cc(C)ccc3O)n[nH]2)cc1", "hERG current change (%, negative = inhibition) at 1uM": 17.2}, {"compound": "C=CCN1C=C2C(=O)C(C)(OC(=O)CCc3ccccc3)C(=O)C=C2C=C1c1ccc(C#N)cc1", "note": "(stereo not shown)", "hERG current change (%, negative = inhibition) at 1uM": 4}, {"compound": "COc1ccc(C/C(=N\\OC(C)=O)c2ccc(OC)cc2)cc1", "hERG current change (%, negative = inhibition) at 1uM": 7.22}, {"compound": "CCOc1ccc(CC(=NCCO)C2=C(O)CC(C)(C)CC2=O)cc1OCC", "hERG current change (%, negative = inhibition) at 1uM": 5.81}, {"compound": "CCN(CC)C(=O)c1ccc(C)c(Br)c1", "hERG current change (%, negative = inhibition) at 1uM": 9.24}, {"compound": "O=c1[nH]c(=O)n(-c2ccc(F)cc2)c(O)c1/C=C1\\C=Nc2ccccc21", "hERG current change (%, negative = inhibition) at 1uM": 7.47}, {"compound": "CC1CN(CCCCOc2ccc3ccccc3c2)CC(C)O1", "note": "(stereo not shown)", "hERG current change (%, negative = inhibition) at 1uM": 3.17}, {"compound": "COc1ccc(CNCCc2ccc(Cl)cc2)c(OC)c1OC.O=C(O)C(=O)O", "hERG current change (%, negative = inhibition) at 1uM": -12.1}, {"compound": "CC1CN(CN2C(=O)c3ccccc3C2=O)CC(C)O1", "note": "(stereo not shown)", "hERG current change (%, negative = inhibition) at 1uM": -5.09}, {"compound": "N#CCCn1cc(C(=O)Nc2ccc([N+](=O)[O-])cc2)c(-c2cc3ccccc3o2)n1", "hERG current change (%, negative = inhibition) at 1uM": 17.8}, {"compound": "CCOC(=O)c1c(C)[nH]c(C(=O)OCC(=O)c2ccc3c(c2)NC(=O)CO3)c1C", "hERG current change (%, negative = inhibition) at 1uM": 8.92}, {"compound": "COc1ccc2cc3cc(C(=O)N4CCN(C5CCCCC5)CC4)oc3nc2c1", "hERG current change (%, negative = inhibition) at 1uM": 13.4}, {"compound": "Cc1ccccc1-n1ncc2c1CC(C)(C)CC2NC(=O)C1CCC1", "note": "(stereo not shown)", "hERG current change (%, negative = inhibition) at 1uM": 5.1}, {"compound": "O=C(O)Cc1sc(Nc2cccc3ccccc23)nc1-c1ccc(Cl)cc1", "hERG current change (%, negative = inhibition) at 1uM": 19}, {"compound": "Cc1cnc(C(=O)OCC(=O)NC2CCCCC2)cn1", "hERG current change (%, negative = inhibition) at 1uM": 8.33}, {"compound": "Cc1nc2cc(NC(=O)NCc3ccccc3)ccc2o1", "hERG current change (%, negative = inhibition) at 1uM": 16.2}, {"compound": "COc1cccc(CNCC(=O)Nc2ccc(N3CCOCC3)cc2)c1.O=C(O)C(=O)O", "hERG current change (%, negative = inhibition) at 1uM": -0.489}, {"compound": "Br.O=S1(=O)C[C@@H]2N=C(N/N=C/c3ccccc3)S[C@@H]2C1", "hERG current change (%, negative = inhibition) at 1uM": 15.5}, {"compound": "CC(C)N1CCC(N2CCN(CCCc3ccccc3)CC2CCO)CC1", "note": "(stereo not shown)", "hERG current change (%, negative = inhibition) at 1uM": 10.1}, {"compound": "O=C1c2cccc3cc([N+](=O)[O-])cc(c23)C(=O)N1CC1CCCO1", "note": "(stereo not shown)", "hERG current change (%, negative = inhibition) at 1uM": 3.98}, {"compound": "CC(C)c1cc(-c2cc(-c3ccc(Cl)cc3)on2)nc(NCC2CC2)n1", "hERG current change (%, negative = inhibition) at 1uM": 11}, {"compound": "Cc1cccc(C(=O)N/C(=C\\c2ccco2)C(=O)N2CCCCCC2)c1", "hERG current change (%, negative = inhibition) at 1uM": 8.69}, {"compound": "Cc1ccc([N+](=O)[O-])cc1S(=O)(=O)N(C(=O)c1ccncc1)c1ccc2oc3c(c2c1)CCCC3", "hERG current change (%, negative = inhibition) at 1uM": 10.9}, {"compound": "COc1ccccc1C(=O)NC(=O)COC(=O)CCOc1ccc(C)cc1", "hERG current change (%, negative = inhibition) at 1uM": 13.7}, {"compound": "O=C(COc1ccc(F)cc1)Nc1nnc(C2CCCCC2)s1", "hERG current change (%, negative = inhibition) at 1uM": 19.8}, {"compound": "O=C(CSc1nc2ccccc2s1)Nc1ccc(C(=O)O)cc1", "hERG current change (%, negative = inhibition) at 1uM": 5.84}, {"compound": "Cc1c(Cl)cccc1NC(=O)NC1CCCCC1", "hERG current change (%, negative = inhibition) at 1uM": 12.8}, {"compound": "CCOCCc1c(O)nc(SCC)[nH]c1=O", "hERG current change (%, negative = inhibition) at 1uM": 7.23}, {"compound": "CCCCN(CCCC)c1ccc(C(=O)c2ccccc2C(=O)O)c(O)c1", "hERG current change (%, negative = inhibition) at 1uM": -50.5}, {"compound": "CN(CC(=O)Nc1cc(S(=O)(=O)N2CCCC2)ccc1Cl)Cc1ccc2c(c1)OCO2", "hERG current change (%, negative = inhibition) at 1uM": 14.1}, {"compound": "COc1cccc(-c2nc(-c3ccc4c(c3)NC(=O)CO4)cs2)c1", "hERG current change (%, negative = inhibition) at 1uM": -20.6}, {"compound": "CCn1c(=O)cc(OCC(=O)Nc2cccc(C)n2)c2ccccc21", "hERG current change (%, negative = inhibition) at 1uM": -22.1}, {"compound": "COCCn1cnc2c1c(=O)n(Cc1ccc(Br)cc1)c(=O)n2Cc1ccccc1", "hERG current change (%, negative = inhibition) at 1uM": 8.5}, {"compound": "CCOC(=O)C1=NOC(Cn2cc(C#N)c(=O)n(C)c2=O)C1", "note": "(stereo not shown)", "hERG current change (%, negative = inhibition) at 1uM": 25.7}, {"compound": "CC(COc1ccccc1)N(CCCl)Cc1ccccc1.Cl", "note": "(stereo not shown)", "hERG current change (%, negative = inhibition) at 1uM": 7.86}]}]}
